Data published in the RNAGym collection of RNA variant scans (doi:10.1073/pnas.2313332121).
Variants at the background level are over-represented here.

B1: TPR 5TU (parent)
chain: GGAUCUUCUCGAUCUAACAAAAAAGACAAAUCUGCCACAAAGCUUGAGAGCAUCUUCGGAUGCAGAGGCGGCAGCCUUCGGUGGCGCGAUAGCGCCAACGUUCUCAACUAUGACACGCAAAACGCGUGCUCCGUUGAAUGGAGUUUAUCAUG

Variants of: B1
Assay: polymerase ribozyme fitness, log enrichment relative to wild type (log ratio); higher = more active; in vitro selection for triplet polymerase activity
Procedure, shortened: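 Each subunit of a heterodimeric triplet polymerase ribozyme was mutagenized into a library by PCR, transcribed, and subjected to one round of in vitro selection, run in triplicate. Libraries were annealed with a biotinylated primer, the partner subunit and triplets, incubated frozen at −7 °C, and extended constructs were gel-excised, captured on streptavidin beads and recovered by RT-PCR. Input and output libraries were sequenced on Illumina, keeping genotypes with ≥10 input reads and ≥1 read per output. Fitness is log base 2 of genotype enrichment divided by wild-type enrichment, from inverse-variance-weighted replicate averages.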

Polymerase ribozyme fitness (log ratio), ≤ -4.2:
C35U C96U C105G G126C A142U
C35A U127G
G34U U55A U78A C85A A120C U130G U134A
U33C C87A A137C G141A
C35U U53A G84C C99G G133C
G34U U56A C69A G86A C108U G141A U146A
U33C U55G A107C C116U
C35G C51G A97G A98G
G34A A52G G83U G88C C103A C118U U139G G141U
C35U G46A G48A G71U G86U C96U A98C U139A
G34U G42A G48A G94C A107U
U33G G94U G126A
U33G A49G C54A C57A C63U C72U C87A U102G A107U G124C
C36A A49G A52C A73G U77C G84A
C35G G92A A115C A142G
C35G U90G C96U C118U U139A G140A
C35A C69U C93U C125U
C36A A52C G80A
U33C G88A
G34C U53G G58A C63A C69U G70C A113U C123A
G34A C43U U55A G58C A66C G71A A89U C95U A121U A142C
U33G A52G C87U G100C
C35U A107G U139C
C35A C72G A73U U77G G92A G133C U148C
G34A C36U C105A A107U
G34A A52C A122U U135C
G34A A49C G67C C85A G124C
C35U G80U C93A U111C
G34C G59A G141U A142U
U33G C93G A107G A110U A119G A137U U151G
C35A C87G C118U
G34U U53C G88A G92U G152A
C35A U148G
C35U G50C C93G
C36A G42A U78A G84A C95U U135G
C35U G94A A107G C125G
C36A G42A C76A G86U G94A A98U
C36G G65C G88C A107G
C35U U55G U146G A147C
C35G C95G C131U G136A
C35G A47C G50C C99A U151C
C35U G62A C99U
C35A A39U U53A G83A G86A A91U
C35U C69U C108A A113U
C35G U102A A110U C129A G133C
G34U C57A C87G A91G C96A G133A A138U
U33G A49U G67C G74A U134A U139C
C35G U56A G68U G92U U148G
C36A C114A
C36A C75U A89G C93A C108G G136C
U33G G48U G86U G143U U144G
U33G C54U A89C G126A G133A
C35A U53A A107G G133C
C35G A52C C95A C125G
C35U A64C
C35A G83A A98G C116G C132U U135G A137G
G34A A89G A110U
U33G C79U G81C G86A C114A G140A
C35A C57U G68A C75A C87U C99A
G34C G48C C75U G81A A107U G140A
C35U G50C C75U G84C C93U
U33G G92A U109C G126A
C36A C76A A119U
U33C C38U A66C U77G C85A A98U C105U
U33G C75A C87G U109A A113U G117U
U33G U44G C85G A91G U151A
G34U U55A A91G G94U C125A
C35A A40G G59A G65A U82A G92A C103A
C35U A37C U56A G83U C96G U101G A115C
G34C C76U C87G
C36A U56C C85G A115U C123G
C36G A73G G86A G92A A97G U102G C108A C116A C118A A121U U134G
C36A G86A
G34A A47C G59A A91G
G34A G65U C69G A91U G92C
C35G C79U G80A A121C
U33G G94U G117U C149A
C35U A66G G74A C79A G83U C85A C95A U102G U104G
C36A C96U U104C
C35U A91U C93A C129G
G34C A41C C79U U151G
C36G U61G C95G A138G
C36G A60G C79G C116U C118U G141C A150C
G34C G58A C87U C93U C99U
C35G A47C U55G C69G A73U A91G U111A G117C A142C
U33C C35U C79G A91C C108A U109C
C35G C96G
C35G G50A A106C U109C
U33G A41C G46A G67A G84U G124U G133U G143A
C35A G42C C57G U78G C108G C129A C131A U139C
C35A G50C G86A A137G
C35G A73U G126U C132U
C36G G94U A142G
C35U U45G C75U U77A C79G C87G
C36A G71C C79U C96A G126U G140C
G34U A91U C108A C123U
C36G G50A A66U G88U G94U C116G C149G
C35U G46A C87A C103U A115U
C35A C85U U104G C108A C114A U146A
C35U U53A U61A G68U
G34A G58C A64G C79U G92U
C36G G62A C69A
C36G G92A C114U A120U G124A
G34U U55A G58A C79U G81A G92A C105A A150U
C35G C79U
G34U C35G A60C C72U C93G U104C C114U U144A U145A
G34U C95G G124A U139A
C35G C93A C114G C118A
U33G C57A A91G A137U
G34A C95A C96G A97G G100U C131A
G34U U55A C76U G80A
C36A U56A G59U G67A G83A C85A G100C A107G C108U U111G
C35U G59C A91U U135G
C35U G65A C95A A106C G126A U151G
C35A U55G A91G C95G A122U G136U
U33C C43A G124A
G34U G58A U61A C87A U101G U102A G133U
C35U C57U U90G C99U U101A C116G
C36A C76U G83A
G34A U78G G88A C95U G141A
C35A U55A A91C
C35U C54A U77C G86U C116U G117A
U33G G68U C72A G92C A107G A122C U145G A150G
C35U U53G G86U C114U C132U U139C C149U
C35A A41C A52C G58A C96U A122G G126U
C35G C69A U78G A91G
C35U A41C A49C U55A C85A G86A U90G G117U
U33G U55A C57U G68U C85G C93G C118U
U33C G34A G59A G68A A107C C131G U146G
C35U U61G C85A G112U
G34U G48U A138G U144G
C35U C85U C87G C118U C123A G126U C149G
C35A G68U C76G A106C
U33G C43U C93U C114U U139C
U33G C79A A91G
C35U A64C C105G A121C U134G U144C
C36A A107U
C35U G74A G94C C114U A115U
C35A C79A G80U G81A C85G C105G C116U
U33C U44A G81U C85G A97U U111A A119U C125G G141U
C36A G50C A66U G92A
G34A C36A U56G C95U U144C
C35U A40C A64U G67A C87U C132G G140U
C35A C75G U77G C132G U151C
C35U C87A C123U
U33G U44G A60C U82G A122U C125U
C35U G86A C93A A113C
C36A C87U A97C A98U U145C
C35G U55A A60G U90C U101A A150G G152C
C36A A37U C54G U56A G92C U102A
U33G G34U A41G G74A U77C U130C U139A
C35U G58C C63U C93G C116G
C36A A107G G140U U146G
G34A G42U A91U C95G
U33G U61A C79A A91U C95A
C35G G86U A122G G136A U139A U144A
C35U U44A C95U A106U G126A
U33G G48A C54U G62C
C35U C87A A107G
C35U U55A A66U C87U G126U U134A
U33G C51U U53A C76U U78A C96G C132U
C35A A41C U77A G80A U148G
C36A G92U C103U G136U
C35G A89G
C35G C96G G136A G143A
C36A U45G A97G
G34U A37U C75A C87U C105A A115G C132U
